# Results reported in the supplement of paper PMC8728848.
# The list shows a part of the results.
# B1: PV12658A-bvu-496-32-496 (Bacteroides vulgatus) (protein)
# chain: DLDGAITTPAAVELALNGIYYSLPGNGFNVIFPTVSGSFKAGTMWRQEIVSAGNAVYYSERMLPTLSFSDATEWDADYAVIKNANFLETACNRMSDGEFSGNRRAEVLGEIAYLRALAYFNILVRYCEFWDMNSEYGVVMRNEAPSVSNALKARSSVADSYQYILDQLEIAIEKAPDWKKLSQASKEAAKALKARVLLYAGKYTEAVAAVNDAIDTNSPLPEANYGDVFDKFSTTKEILFARVFDQKDATNTSTRQQCYGNSPTKKQGYWGPTNEYVELVGDDPRADAIFSKVDSLMDSRSSAVAYNLKSVKKLLNDANDMPVIFSRVSELYLIKAEALYRSGASISEAYAPIRKLRERAGAEIILPANNEELETAIFNEWMLELSFENWHEWFAMIRFAGYTEKPDFTRLLALNKTLREALEKEYEKSEAQGDNYYQRIIDRRIDAIPSSEISSNLECKQNPGY
# Experiments:
# Test in all cases: glycan array binding signal (z-score within array); higher = stronger binding
# Conditions in all cases: glycan notation: IUPAC condensed, linker removed
# [1] = biological target: GalNAc(b1-4)GlcNAc(b1-2)Man
# Method in brief: (§1)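 The binding signal is a Z-score computed within each array. Data were drawn from 3228 arrays in the Consortium for Functional Glycomics database, restricted to those with a known protein sequence. Scores were averaged over arrays of the same protein sequence at different concentrations or buffers, and over linkers, and negative values can be taken as non-binding.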
# [2] = biological target: GalNAc(b1-4)GlcNAc(b1-2)Man(a1-3)[GalNAc(b1-4)GlcNAc(b1-2)Man(a1-6)]Man(b1-4)GlcNAc(b1-4)GlcNAc
# Method in brief: as §1
# [3] = biological target: GalNAc(b1-4)GlcNAc(b1-3)GalNAc(b1-4)GlcNAc
# Method in brief: as §1
# GalNAc(b1-4)GlcNAc6S = biological target: GalNAc(b1-4)GlcNAc6S
# Method in brief: as §1
# GalNAc(b1-6)GalNAc = biological target: GalNAc(b1-6)GalNAc
# Method in brief: as §1
# GalNAc3S(b1-4)GlcNAc = biological target: GalNAc3S(b1-4)GlcNAc
# Method in brief: as §1
# GalNAc3S(b1-4)GlcNAc3S = biological target: GalNAc3S(b1-4)GlcNAc3S
# Method in brief: as §1
# [4] = biological target: GalNAc3S(b1-4)[Fuc(a1-3)]GlcNAc
# Method in brief: as §1
# GalNAc4S6S(b1-4)GlcNAc = biological target: GalNAc4S6S(b1-4)GlcNAc
# Method in brief: as §1
# GalNAc6S(b1-4)GlcNAc = biological target: GalNAc6S(b1-4)GlcNAc
# Method in brief: as §1
# Glc(a1-4)Glc = biological target: Glc(a1-4)Glc
# Method in brief: as §1
# [5] = biological target: Glc(a1-4)Glc(a1-4)Glc(a1-4)Glc
# Method in brief: as §1
# Glc(a1-6)Glc(a1-6)Glc = biological target: Glc(a1-6)Glc(a1-6)Glc
# Method in brief: as §1
# [6] = biological target: Glc(a1-6)Glc(a1-6)Glc(a1-6)Glc
# Method in brief: as §1
# Glc(b1-4)Glc = biological target: Glc(b1-4)Glc
# Method in brief: as §1
# Glc(b1-6)Glc = biological target: Glc(b1-6)Glc
# Method in brief: as §1
# GlcA(b1-3)Gal = biological target: GlcA(b1-3)Gal
# Method in brief: as §1
# GlcA(b1-3)GlcNAc = biological target: GlcA(b1-3)GlcNAc
# Method in brief: as §1
# GlcA(b1-6)Gal = biological target: GlcA(b1-6)Gal
# Method in brief: as §1
# [7] = biological target: GlcA3S(b1-3)Gal(b1-4)GlcNAc(b1-2)Man
# Method in brief: as §1
# [8] = biological target: GlcA3S(b1-3)Gal(b1-4)GlcNAc(b1-3)Gal(b1-4)Glc
# Method in brief: as §1
# [9] = biological target: GlcNAc(a1-3)Gal(b1-4)GlcNAc
# Method in brief: as §1
# [10] = biological target: GlcNAc(a1-4)Gal(b1-3)GlcNAc
# Method in brief: as §1
# [11] = biological target: GlcNAc(a1-4)Gal(b1-4)GalNAc
# Method in brief: as §1
# [12] = biological target: GlcNAc(a1-4)Gal(b1-4)GlcNAc
# Method in brief: as §1
# [13] = biological target: GlcNAc(a1-4)Gal(b1-4)GlcNAc(b1-3)Gal(b1-4)Glc
# Method in brief: as §1
# [14] = biological target: GlcNAc(a1-4)Gal(b1-4)GlcNAc(b1-3)Gal(b1-4)GlcNAc
# Method in brief: as §1
# [15] = biological target: GlcNAc(a1-4)Gal(b1-4)GlcNAc(b1-3)Gal(b1-4)GlcNAc(b1-3)Gal(b1-4)GlcNAc
# Method in brief: as §1
# [16] = biological target: GlcNAc(a1-4)Gal(b1-4)GlcNAc(b1-3)Gal(b1-4)[Fuc(a1-3)]GlcNAc(b1-3)Gal(b1-4)[Fuc(a1-3)]GlcNAc
# Method in brief: as §1
# [17] = biological target: GlcNAc(a1-6)Gal(b1-4)GlcNAc
# Method in brief: as §1
# [18] = biological target: GlcNAc(b1-2)Gal(b1-3)GalNAc
# Method in brief: as §1
# [19] = biological target: GlcNAc(b1-2)Man(a1-3)[GlcNAc(b1-2)Man(a1-6)]Man(b1-4)GlcNAc(b1-4)GlcNAc
# Method in brief: as §1
# [20] = biological target: GlcNAc(b1-2)Man(a1-3)[GlcNAc(b1-2)Man(a1-6)]Man(b1-4)GlcNAc(b1-4)[Fuc(a1-6)]GlcNAc
# Method in brief: as §1
# [21] = biological target: GlcNAc(b1-2)Man(a1-3)[GlcNAc(b1-4)][GlcNAc(b1-2)Man(a1-6)]Man(b1-4)GlcNAc(b1-4)GlcNAc
# Method in brief: as §1
# [22] = biological target: GlcNAc(b1-2)Man(a1-3)[GlcNAc(b1-4)][GlcNAc(b1-2)Man(a1-6)]Man(b1-4)GlcNAc(b1-4)[Fuc(a1-6)]GlcNAc
# Method in brief: as §1
# [23] = biological target: GlcNAc(b1-2)[GlcNAc(b1-4)]Man(a1-3)[GlcNAc(b1-2)Man(a1-6)]Man(b1-4)GlcNAc(b1-4)GlcNAc
# Method in brief: as §1
# [24] = biological target: GlcNAc(b1-2)[GlcNAc(b1-4)]Man(a1-3)[GlcNAc(b1-4)][GlcNAc(b1-2)Man(a1-6)]Man(b1-4)GlcNAc(b1-4)GlcNAc
# Method in brief: as §1
binder,measurement,setting,value
B1,glycan array binding signal (z-score),[1],-0.439
same,glycan array binding signal (z-score),[2],0.149
same,glycan array binding signal (z-score),[3],-0.422
same,glycan array binding signal (z-score),GalNAc(b1-4)GlcNAc6S,-0.208
same,glycan array binding signal (z-score),GalNAc(b1-6)GalNAc,-0.407
same,glycan array binding signal (z-score),GalNAc3S(b1-4)GlcNAc,-0.329
same,glycan array binding signal (z-score),GalNAc3S(b1-4)GlcNAc3S,-0.241
same,glycan array binding signal (z-score),[4],-0.287
same,glycan array binding signal (z-score),GalNAc4S6S(b1-4)GlcNAc,-0.376
same,glycan array binding signal (z-score),GalNAc6S(b1-4)GlcNAc,-0.216
same,glycan array binding signal (z-score),Glc(a1-4)Glc,-0.397
same,glycan array binding signal (z-score),[5],0.691
same,glycan array binding signal (z-score),Glc(a1-6)Glc(a1-6)Glc,-0.573
same,glycan array binding signal (z-score),[6],-0.006
same,glycan array binding signal (z-score),Glc(b1-4)Glc,-0.361
same,glycan array binding signal (z-score),Glc(b1-6)Glc,-0.36
same,glycan array binding signal (z-score),GlcA(b1-3)Gal,-0.408
same,glycan array binding signal (z-score),GlcA(b1-3)GlcNAc,-0.205
same,glycan array binding signal (z-score),GlcA(b1-6)Gal,-0.459
same,glycan array binding signal (z-score),[7],-0.329
same,glycan array binding signal (z-score),[8],-0.236
same,glycan array binding signal (z-score),[9],-0.069
same,glycan array binding signal (z-score),[10],-0.345
same,glycan array binding signal (z-score),[11],-0.111
same,glycan array binding signal (z-score),[12],0.968
same,glycan array binding signal (z-score),[13],0.68
same,glycan array binding signal (z-score),[14],3.04
same,glycan array binding signal (z-score),[15],0.219
same,glycan array binding signal (z-score),[16],0.093
same,glycan array binding signal (z-score),[17],-0.379
same,glycan array binding signal (z-score),[18],-0.342
same,glycan array binding signal (z-score),[19],-0.472
same,glycan array binding signal (z-score),[20],-0.488
same,glycan array binding signal (z-score),[21],-0.291
same,glycan array binding signal (z-score),[22],-0.235
same,glycan array binding signal (z-score),[23],0.029
same,glycan array binding signal (z-score),[24],-0.125
